Several values for one entry are separate records, joined by “and”; a condition that tells them apart may be missing. Equal entries are not always repeated. Inconclusive means that the source gave no clear call. Such entries were picked first, then a sample of the others. For some of these results: Where the call is inconclusive, the potency comes from a doubtful curve fit. Activity calls are given as the source filed them. Unless noted, calls follow the shape of the dose curve; as a rule, active = well fitted curve in the direction sought with a large enough effect in the repeat runs; inconclusive = weak or mixed curves; inactive = no such curve, though single readings can be large; an effect the other way counts as inactive or inconclusive.
What was measured:
[1] = qHTS assay to identify small molecule that activate the aryl hydrocarbon receptor (AhR) signaling pathway - cell viability counter screen (AID 743086); also: nearly all actives have a fitted effect of over 45% in size; also: potency is read from the fitted curve at half-maximal effect;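 as to viability change, negative = cytotoxic: HepG2 liver cells carrying the AhR DRE luciferase reporter; % is scaled to controls: 0 for no effect and ±100 for the full control effect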
In short: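 HepG2-AhR-luc (HG2L7.5c1) cells, 4000/well, were preincubated 5 h at 37C, exposed to compound in qHTS format for 24 hr at 37C, then given CellTiter-Fluor for 30 min; viability was read as fluorescence in the reporter wells.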

[2] = biological target: Peroxisome proliferator-activated receptor gamma (Homo sapiens) (UniProt P37231); experiment: qHTS assay to identify small molecule antagonists of the peroxisome proliferator-activated receptor gamma (PPARg) signaling pathway (AID 743191; calls by dose curve; also: nearly all actives have a fitted effect of over 30% in size; also: potency is read from the fitted curve at half-maximal effect); details: HEK293H PPARg-UAS-bla, beta-lactamase ratio, antagonist, 17 h; ratio activity, negative = inhibition: at 62.6 µM (top of the series) unless noted
Sequence of UniProt P37231 (P37231 whole entry, looked up): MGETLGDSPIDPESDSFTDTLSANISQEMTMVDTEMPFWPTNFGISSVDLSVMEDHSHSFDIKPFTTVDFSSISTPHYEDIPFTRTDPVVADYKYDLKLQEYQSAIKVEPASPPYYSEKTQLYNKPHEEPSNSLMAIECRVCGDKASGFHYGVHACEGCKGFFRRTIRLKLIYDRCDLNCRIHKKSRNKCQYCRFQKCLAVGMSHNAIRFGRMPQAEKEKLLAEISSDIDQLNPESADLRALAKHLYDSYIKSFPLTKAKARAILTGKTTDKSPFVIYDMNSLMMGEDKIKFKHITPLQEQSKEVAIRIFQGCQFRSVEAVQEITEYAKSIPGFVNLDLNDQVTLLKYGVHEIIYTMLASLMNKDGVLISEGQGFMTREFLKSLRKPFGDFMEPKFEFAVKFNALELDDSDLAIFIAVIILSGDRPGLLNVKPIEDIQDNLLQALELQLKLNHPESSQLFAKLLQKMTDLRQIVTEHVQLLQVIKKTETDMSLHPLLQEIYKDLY
In short: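 GeneBLAzer PPARg UAS-bla HEK293H cells carrying a UAS-driven beta-lactamase reporter were plated at 3000 cells/well, preincubated 5 h at 37C, then given compound for 17 h at 37C; LiveBLAzer B/G FRET substrate was read after 1 h at room temperature.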

[3] = qHTS assay for small molecule agonists of the antioxidant response element (ARE) signaling pathway (AID 743202; active = well fitted activation curve with a large enough effect in the signal ratio in the repeat runs, not every such curve was filed as active; inconclusive = weak or mixed curves, or effect the other way; inactive = no such curve, though single readings can be large or run the other way; the % refers to the signal ratio; also: potency is read from the fitted curve at half-maximal effect); details: HepG2 ARE-bla reporter, beta-lactamase FRET, 16 h
In short: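 Following a 16 h, 37 C exposure of reporter HepG2 cells (ARE-driven beta-lactamase, 2,000 cells/well) to compounds, FRET substrate was applied for 2 h at room temperature and fluorescence intensity recorded.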

[4] = biological target: Peroxisome proliferator-activated receptor delta (Homo sapiens) (UniProt Q03181); experiment: qHTS assay to identify small molecule agonists of the peroxisome proliferator-activated receptor delta (PPARd) signaling pathway (AID 743212; calls by dose curve; also: potency is read from the fitted curve at half-maximal effect; as to activation: % is scaled to controls: 0 for no effect and ±100 for the full control effect); details: HEK293H PPARd-UAS-bla, beta-lactamase FRET ratio, 17 h; activation: at 62.6 µM (top of the series) unless noted
Sequence of UniProt Q03181 (Q03181 whole entry, looked up): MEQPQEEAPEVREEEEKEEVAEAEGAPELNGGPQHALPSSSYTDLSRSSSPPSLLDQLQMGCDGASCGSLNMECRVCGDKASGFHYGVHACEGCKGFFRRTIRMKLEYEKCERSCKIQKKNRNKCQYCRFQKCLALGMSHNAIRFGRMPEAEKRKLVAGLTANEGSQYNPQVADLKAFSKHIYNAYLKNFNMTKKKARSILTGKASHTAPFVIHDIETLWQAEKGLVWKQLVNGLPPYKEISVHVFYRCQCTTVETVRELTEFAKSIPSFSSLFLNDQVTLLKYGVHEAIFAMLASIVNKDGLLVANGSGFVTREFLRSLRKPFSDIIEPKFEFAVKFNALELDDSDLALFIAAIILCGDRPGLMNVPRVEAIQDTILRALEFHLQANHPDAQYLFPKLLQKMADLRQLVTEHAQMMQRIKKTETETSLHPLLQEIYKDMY
In short: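 Beta-lactamase reporter read by fluorescence (LiveBLAzer B/G FRET, 2 h, room temperature). Test agents, in DMSO, incubated at 37 C with PPARd-bla HEK293H cells.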

[5] = qHTS assay to identify small molecule antagonists of the peroxisome proliferator-activated receptor delta (PPARd) signaling pathway - cell viability counter screen (AID 743213); details: PPARd-bla HEK293H viability, CellTiter-Glo luminescence, 17 h; viability change, negative = cytotoxic: at 62 µM (top of the series) unless noted; also: nearly all actives have a fitted effect of over 50% in size; also: potency is read from the fitted curve at half-maximal effect; as to viability change, negative = cytotoxic: % is scaled to controls: 0 for no effect and ±100 for the full control effect
In short: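 Same-well viability: cells pre-incubated 5 h, dosed with compound plus 300 nM L165041, kept 17 h at 37 C, FRET substrate 2 h RT, then CellTiter-Glo 30 min RT and luminescence.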

[6] = biological target: Bile acid receptor (Homo sapiens) (UniProt Q96RI1); experiment: qHTS assay to identify small molecule antagonists of the farnesoid-X-receptor (FXR) signaling pathway (AID 743217; active = well fitted inhibition curve with a large enough effect in the signal ratio in the repeat runs, not every such curve was filed as active; inconclusive = weak or mixed curves, or effect the other way; inactive = no such curve, though single readings can be large or run the other way; the % refers to the signal ratio; also: potency is read from the fitted curve at half-maximal effect); details: HEK293T FXR-UAS-bla, beta-lactamase ratio, CDCA-stimulated, 16 h; activity change, negative = inhibition: at 62.6 µM (top of the series) unless noted
Sequence of UniProt Q96RI1 (Q96RI1 whole entry, looked up): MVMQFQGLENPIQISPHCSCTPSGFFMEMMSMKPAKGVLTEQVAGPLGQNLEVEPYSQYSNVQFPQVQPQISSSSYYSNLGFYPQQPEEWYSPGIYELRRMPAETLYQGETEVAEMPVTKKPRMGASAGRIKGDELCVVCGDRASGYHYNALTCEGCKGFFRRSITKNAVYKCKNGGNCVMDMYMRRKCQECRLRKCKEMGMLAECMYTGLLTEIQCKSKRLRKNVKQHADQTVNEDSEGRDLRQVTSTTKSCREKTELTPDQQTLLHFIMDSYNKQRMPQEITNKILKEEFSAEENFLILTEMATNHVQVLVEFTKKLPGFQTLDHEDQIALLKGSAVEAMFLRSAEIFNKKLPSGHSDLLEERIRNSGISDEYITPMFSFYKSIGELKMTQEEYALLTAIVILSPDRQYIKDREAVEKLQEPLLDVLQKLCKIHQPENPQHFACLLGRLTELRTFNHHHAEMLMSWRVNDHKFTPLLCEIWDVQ
In short: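 Antagonist mode: chenodeoxycholic acid at 50 uM final stimulates a UAS-driven beta-lactamase reporter in HEK 293T FXR-bla cells during 16 h, 37C compound exposure. Read-out is FRET substrate fluorescence after 2 h at room temperature.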

[7] = biological target: Vitamin D3 receptor (Homo sapiens) (UniProt P11473); experiment: qHTS assay to identify small molecule agonists of the vitamin D receptor (VDR) signaling pathway (AID 743222; calls by dose curve; also: potency is read from the fitted curve at half-maximal effect); details: HEK293T VDR-UAS-bla, beta-lactamase FRET ratio, 16 h; activation: at 63.5 µM (top of the series) unless noted
Sequence of UniProt P11473 (P11473 whole entry, looked up): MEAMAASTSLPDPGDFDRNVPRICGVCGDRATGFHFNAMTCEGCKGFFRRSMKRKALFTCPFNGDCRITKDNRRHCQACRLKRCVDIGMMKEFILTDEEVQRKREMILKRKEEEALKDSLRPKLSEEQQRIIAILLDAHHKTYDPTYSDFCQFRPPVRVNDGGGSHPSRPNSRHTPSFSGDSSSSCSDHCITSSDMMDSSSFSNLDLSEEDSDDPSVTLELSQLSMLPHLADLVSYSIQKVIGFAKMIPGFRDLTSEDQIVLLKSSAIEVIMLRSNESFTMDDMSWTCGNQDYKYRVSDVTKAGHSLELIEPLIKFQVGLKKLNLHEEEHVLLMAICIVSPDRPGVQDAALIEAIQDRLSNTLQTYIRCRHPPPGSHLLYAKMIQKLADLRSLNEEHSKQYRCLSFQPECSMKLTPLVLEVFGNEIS
In short: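 Agonist mode, beta-lactamase reporter: fluorescence from LiveBLAzer B/G FRET substrate (2 h, room temperature) read after 16 h compound treatment at 37 C of VDR-bla cells, which were pre-incubated 4 h after seeding.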

[8] = qHTS assay for small molecule agonists of the antioxidant response element (ARE) signaling pathway - cell viability counter screen (AID 743203; calls by dose curve; also: potency is read from the fitted curve at half-maximal effect; nearly all actives have a fitted effect of over 55% in size); details: ARE-bla HepG2 viability, CellTiter-Glo luminescence, 16 h; viability change, negative = cytotoxic: at 73.3 µM (top of the series)
In short: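 Viability counter screen: CellTiter-Glo luminescence, read after 30 min at room temperature, in ARE-bla HepG2 wells. Compound exposure lasted 16 h at 37C/5% CO2, following a 5 h pre-incubation of the cells after plating.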

[9] = qHTS assay for small molecule activators of the heat shock response signaling pathway - cell viability counter screen (AID 743209); details: HSE-bla HeLa viability, CellTiter-Glo luminescence, 5 h; activity change, negative = cytotoxicity: at 62.6 µM (top of the series) unless noted; also: potency is read from the fitted curve at half-maximal effect; nearly all actives have a fitted effect of over 50% in size
In short: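 Cytotoxicity counter screen run in the same wells as the heat-shock bla reporter assay: HeLa HSE-bla cells, 5 h compound exposure at 37 C, viability read by CellTiter-Glo luminescence.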

[10] = qHTS assay to identify small molecule agonists of the peroxisome proliferator-activated receptor delta (PPARd) signaling pathway - cell viability counter screen (AID 743211); details: PPARd-bla HEK293H viability, CellTiter-Glo luminescence, 17 h; activity change, negative = cytotoxicity: at 62.6 µM (top of the series) unless noted; also: nearly all actives have a fitted effect of over 55% in size; also: potency is read from the fitted curve at half-maximal effect
In short: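 Read-out: CellTiter-Glo luminescence, 30 min RT, measured in the same wells as the beta-lactamase reporter. Cells: GeneBLAzer PPAR delta UAS-bla HEK293H, 3000 cells/well, compound exposure 17 h at 37C.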

[11] = biological target: Peroxisome proliferator-activated receptor delta (Homo sapiens) (UniProt Q03181); experiment: qHTS assay to identify small molecule antagonists of the peroxisome proliferator-activated receptor delta (PPARd) signaling pathway (AID 743215; active = well fitted inhibition curve with a large enough effect in the signal ratio in the repeat runs, not every such curve was filed as active; inconclusive = weak or mixed curves, or effect the other way; inactive = no such curve, though single readings can be large or run the other way; the % refers to the signal ratio;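 also: cells stimulated with agonist L165041 at 300 nM final during compound exposure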; also: potency is read from the fitted curve at half-maximal effect); details: HEK293H PPARd-UAS-bla, beta-lactamase FRET ratio, antagonist, 17 h; ratio activity, negative = inhibition: at 62 µM (top of the series) unless noted
In short: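 Agonist L165041 (300 nM final) added with compound to PPARd-bla HEK293H UAS-bla reporter cells; 17 h incubation at 37 C. Read-out: LiveBLAzer FRET substrate, 2 h at room temperature, fluorescence intensity.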

[12] = biological target: Bile acid receptor (Homo sapiens) (UniProt Q96RI1); experiment: qHTS assay to identify small molecule agonists of the farnesoid-X-receptor (FXR) signaling pathway (AID 743220; active = well fitted activation curve with a large enough effect in the signal ratio in the repeat runs, not every such curve was filed as active; inconclusive = weak or mixed curves, or effect the other way; the % refers to the signal ratio; also: % is scaled to controls: 0 for no effect and ±100 for the full control effect); details: HEK293T FXR-UAS-bla, beta-lactamase FRET ratio, 16 h; activation: at 62.6 µM (top of the series) unless noted
In short: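 FXR-UAS-bla HEK 293T cells carrying a UAS-driven beta-lactamase reporter were plated for 5 h at 37C/5% CO2, then exposed to DMSO-dissolved Tox21 10K compounds for 16 h at 37C. A LiveBLAzer B/G FRET substrate was loaded for 2 h at room temperature before fluorescence reading.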

[13] = qHTS assay to identify small molecule agonists of the vitamin D receptor (VDR) signaling pathway - cell viability counter screen (AID 743224); details: VDR-bla HEK293T viability, CellTiter-Glo luminescence, 16 h; activity change, negative = cytotoxicity: at 62.6 µM (top of the series); also: potency is read from the fitted curve at half-maximal effect; nearly all actives have a fitted effect of over 50% in size
In short: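 Counter screen run in the same wells as the VDR-bla reporter assay: CellTiter-Glo luminescence, 30 min at room temperature, after 16 h compound treatment at 37C of cells pre-plated for 4 h.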

[14] = qHTS assay for small molecule activators of the heat shock response signaling pathway (AID 743210; active = well fitted activation curve with a large enough effect in the signal ratio in the repeat runs, with a control signal flat, not every such curve was filed as active; inconclusive = weak or mixed curves; the % refers to the signal ratio; also: potency is read from the fitted curve at half-maximal effect); details: HeLa HSE-bla reporter, beta-lactamase ratio, 5 h; activation: at 62.6 µM (top of the series) unless noted
In short: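 Heat shock element–beta-lactamase HeLa reporter cells; qHTS with compounds for 5 h at 37 C; detection by FRET substrate fluorescence after 2.5 h at RT.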

[15] = qHTS assay to identify small molecule agonists of the farnesoid-X-receptor (FXR) signaling pathway - cell viability counter screen (AID 743218); details: FXR-bla HEK293T viability, CellTiter-Glo luminescence, 16 h; viability change, negative = cytotoxic: at 62.6 µM (top of the series) unless noted; also: potency is read from the fitted curve at half-maximal effect; nearly all actives have a fitted effect of over 45% in size
In short: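 Viability counter screen in the same wells: CellTiter-Glo luminescence, 30 min room-temperature incubation, measured after the beta-lactamase read. Cells were GeneBLAzer FXR-UAS-bla HEK 293T, compound-treated 16 h at 37C.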

[16] = biological target: Vitamin D3 receptor (Homo sapiens) (UniProt P11473); experiment: qHTS assay to identify small molecule antagonists of the vitamin D receptor (VDR) signaling pathway (AID 743223; active = well fitted inhibition curve with a large enough effect in the signal ratio in the repeat runs, not every such curve was filed as active; inconclusive = weak or mixed curves, or effect the other way; inactive = no such curve, though single readings can be large or run the other way; the % refers to the signal ratio; also: potency is read from the fitted curve at half-maximal effect); details: VDR-UAS-bla HEK293T, beta-lactamase FRET ratio, 16 h; activity change, negative = inhibition: at 61 µM (top of the series) unless noted
In short: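 Beta-lactamase reporter read-out: FRET substrate fluorescence after 2 h at room temperature, following 16 h exposure of VDR-bla cells to test compound plus 3 nM (final) 1alpha,25-dihydroxyvitamin D3 agonist at 37C.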

[17] = qHTS assay to identify small molecule antagonists of the farnesoid-X-receptor (FXR) signaling pathway - cell viability counter screen (AID 743221; active = well fitted cell-killing curve with a large enough effect in the repeat runs, not every such curve was filed as active; inconclusive = weak or mixed curves, or effect the other way; inactive = no such curve, though single readings can be large or run the other way; also: potency is read from the fitted curve at half-maximal effect; nearly all actives have a fitted effect of over 50% in size); details: FXR-bla HEK293T viability, CellTiter-Glo luminescence, 16 h; activity change, negative = cytotoxicity: at 62.6 µM (top of the series) unless noted
In short: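 HEK 293T FXR-bla cells, 5 h pre-incubation; compound + CDCA 50 uM final, 16 h, 37 C; beta-lactamase FRET read first, then CellTiter-Glo luminescence, 30 min RT.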

[18] = activation: at 73.3 µM (top of the series) unless noted
Tags tell the direction and shape of the fitted curve or compound fluorescence and quenching.

O=C1OC2(c3ccc(O)cc3Oc3cc(O)ccc32)c2ccccc21
Potency [1]: inconclusive: 23.7 µM [rising, partial curve] and inconclusive: 26.6 µM [rising, partial curve] and inconclusive: 10.9 µM [rising, partial curve] | Potency [2]: inconclusive: 43.6 µM [rising, partial curve] and inconclusive: 26.6 µM [rising, partial curve] | Potency [3, 18]: inconclusive: 30.6 µM [rising, partial curve] and inconclusive: 26.6 µM [rising, partial curve] | Potency [4]: inconclusive: 43.6 µM [rising, partial curve] and inconclusive: 23.7 µM [rising, partial curve] | Potency [5]: inactive | Potency [6]: inconclusive: 43.6 µM [rising, partial curve] and inconclusive: 26.6 µM [rising, partial curve] | Potency [7]: inconclusive: 24.5 µM [rising, partial curve] and inconclusive: 26.6 µM [rising, partial curve]

O=C(NOCC1CC1)c1ccc(F)c(F)c1Nc1ccc(I)cc1Cl
Potency [1]: inconclusive: 33.5 µM [falling, single point] | Potency [2]: inconclusive: 15 µM [rising, partial curve] | Potency [3, 18]: inconclusive: 16.8 µM [rising, partial curve] | Potency [8]: inconclusive: 9.44 µM [cytotoxic, partial curve] | Potency [9]: active: 29.8 µM | Potency [10]: inconclusive: 13.3 µM [cytotoxic, partial curve] | activation [4]: inconclusive: 8.56% | Potency [11]: inconclusive: 37.6 µM [rising, partial curve, poor fit] | Potency [6]: inconclusive: 26.6 µM [rising, partial curve] | activation [12]: inconclusive: 5.07% | Potency [13]: inconclusive: 6.68 µM [cytotoxic, full curve]

Nc1c2c(nc3ccccc13)CCCC2
Potency [1]: inactive | activation [3, 18]: inconclusive: 16.9% | activation ([3]; at 73.3 µM (top of the series)): inactive: 4.63% and inactive: 8.14% | Potency [5]: inconclusive: 43.6 µM [cytotoxic, partial curve] | Potency [13]: inconclusive: 38.9 µM [cytotoxic, partial curve, poor fit]

O=c1cc(-c2ccccc2)oc2cc(O)cc(O)c12
Potency [1]: inconclusive: 68.6 µM [falling, single point] | Potency [3, 18]: inconclusive: 68.6 µM [single point] | Potency [9]: inconclusive: 17.4 µM [cytotoxic, full curve] | Potency [14]: inconclusive: 13.8 µM [falling, full curve] | activation [4]: inconclusive: 0.134% | Potency [11]: inconclusive: 54.9 µM | Potency [15]: inconclusive: 0.0219 µM [rising, full curve, poor fit] | Potency [7]: inconclusive: 21.9 µM [rising, partial curve, poor fit] | Potency [16]: inconclusive: 54.9 µM [inhibitor, single point]

CC1COc2ccccc2N1 (stereo unspecified)
Potency [1]: inactive | Potency [2]: inactive | Potency [3, 18]: inactive | Potency [14]: inactive | Potency [11]: inactive | activity change, negative = inhibition [16]: inconclusive: 12.6%

CCN(Cc1cccc(S(=O)(=O)O)c1)c1ccc(C(=C2C=CC(=[N+](CC)Cc3cccc(S(=O)(=O)O)c3)C=C2)c2ccc(O)cc2S(=O)(=O)[O-])cc1
Potency [1]: active: 16.6 µM | Potency [3, 18]: inactive | Potency [8]: inconclusive: 23.4 µM [cytotoxic, partial curve] | Potency [9]: inconclusive: 33.4 µM [cytotoxic, partial curve] | Potency [10]: inconclusive: 14.9 µM [cytotoxic, partial curve] | Potency [5]: inconclusive: 21.1 µM [cytotoxic, partial curve] | Potency [11]: inactive | Potency [15]: inconclusive: 13.3 µM [cytotoxic, partial curve, poor fit] | Potency [17]: inconclusive: 14.9 µM [falling, partial curve] | Potency [16]: inactive | Potency [13]: inconclusive: 26.5 µM [cytotoxic, partial curve]

CCCCCCOCCOCCO
Potency [1]: inconclusive: 77 µM [falling, single point] | Potency [10]: inactive | Potency [15]: inconclusive: 0.0022 µM [rising, full curve, poor fit]

Cc1ccnc2c1NC(=O)c1cccnc1N2C1CC1
Potency [1]: inactive | Potency [2]: inactive | Potency [3, 18]: inactive | Potency [11]: inactive | activity change, negative = inhibition [16]: inconclusive: 6.74%

CC(=O)OCC(COC(C)=O)OC(C)=O
Potency [1]: inactive | Potency [3, 18]: inactive | Potency [14]: inactive | Potency [16]: inactive and inconclusive: 24.5 µM [activator, full curve, poor fit]

— PubChem BioAssay (Tox21)
